{
  "source": "paper PMC4336329",
  "about": "(PLoS ONE, 2015)",
  "note": "In all, about 310,000 compounds went through this assay and about 14,000 (4.5%) showed an effect of 50% or more. Effects have a minus sign here. The list shows a part of the results.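 Also: peak tail current of the secondary pulse compared with the same well before compound.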",
  "data": [
    {"target": "human ether-à-go-go-related gene (hERG) potassium channel (human, UniProt Q12809)", "sequence (Q12809 whole entry, looked up)": "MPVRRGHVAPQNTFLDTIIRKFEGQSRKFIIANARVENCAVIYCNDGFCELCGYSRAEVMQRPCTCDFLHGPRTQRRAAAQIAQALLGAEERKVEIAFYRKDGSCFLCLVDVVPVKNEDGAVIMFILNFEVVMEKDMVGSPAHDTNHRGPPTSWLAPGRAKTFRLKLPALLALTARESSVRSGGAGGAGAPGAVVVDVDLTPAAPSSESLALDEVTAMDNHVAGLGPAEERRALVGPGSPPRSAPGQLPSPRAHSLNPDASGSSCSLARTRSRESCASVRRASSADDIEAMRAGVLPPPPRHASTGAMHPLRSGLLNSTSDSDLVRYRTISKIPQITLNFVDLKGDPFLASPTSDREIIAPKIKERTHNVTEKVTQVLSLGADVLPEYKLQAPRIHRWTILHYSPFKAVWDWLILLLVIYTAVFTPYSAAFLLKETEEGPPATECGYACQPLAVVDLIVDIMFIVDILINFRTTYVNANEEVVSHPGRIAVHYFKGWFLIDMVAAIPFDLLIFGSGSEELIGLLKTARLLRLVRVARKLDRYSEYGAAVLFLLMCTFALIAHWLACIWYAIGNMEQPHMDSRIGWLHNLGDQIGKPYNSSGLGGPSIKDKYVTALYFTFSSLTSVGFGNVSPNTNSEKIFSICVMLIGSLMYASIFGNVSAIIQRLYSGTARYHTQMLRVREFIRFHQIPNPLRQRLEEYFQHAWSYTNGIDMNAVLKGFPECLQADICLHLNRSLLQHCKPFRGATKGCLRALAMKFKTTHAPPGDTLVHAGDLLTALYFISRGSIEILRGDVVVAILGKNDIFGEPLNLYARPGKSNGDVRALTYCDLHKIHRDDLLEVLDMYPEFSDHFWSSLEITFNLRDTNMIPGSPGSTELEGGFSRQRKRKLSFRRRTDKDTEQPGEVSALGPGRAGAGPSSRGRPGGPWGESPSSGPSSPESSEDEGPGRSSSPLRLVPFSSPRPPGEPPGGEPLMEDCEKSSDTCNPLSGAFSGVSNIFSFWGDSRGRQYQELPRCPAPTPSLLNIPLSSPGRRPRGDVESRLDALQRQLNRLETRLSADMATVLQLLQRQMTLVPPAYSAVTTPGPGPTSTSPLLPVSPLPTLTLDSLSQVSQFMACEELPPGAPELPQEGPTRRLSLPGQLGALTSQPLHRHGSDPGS", "assay": "primary screen, population patch clamp on CHO cells stably expressing hERG", "units": {"hERG current change (%, negative = inhibition) at 10uM": "%"}, "values": [
      {"smiles": "Cc1ccc(-c2nn(-c3ccccc3)cc2/C=N/NS(=O)(=O)c2ccccc2)cc1", "hERG current change (%, negative = inhibition) at 10uM": 9.71},
      {"smiles": "COc1ccccc1C(=O)NC(=S)Nc1ccccc1N1CCCC1", "hERG current change (%, negative = inhibition) at 10uM": 5.05},
      {"smiles": "CCC(=O)N1N=C2C3CCN(CC3)C2C1c1ccc(C)cc1", "note": "(stereo not drawn)", "hERG current change (%, negative = inhibition) at 10uM": 10.1},
      {"smiles": "COc1cccc(C(=O)N/N=C/c2ccc(Oc3ccc([N+](=O)[O-])cn3)c(OC)c2)c1", "hERG current change (%, negative = inhibition) at 10uM": -27.2},
      {"smiles": "O=C(CNCc1cccc(Cl)c1)N1CCc2ccccc2C1", "hERG current change (%, negative = inhibition) at 10uM": -18.5},
      {"smiles": "COc1cc(NC(=O)Cc2cccs2)ccc1-n1cnnn1", "hERG current change (%, negative = inhibition) at 10uM": 9.4},
      {"smiles": "COc1ccc(OC)c(N(CC(=O)N2CCCC2)S(=O)(=O)c2ccc(C)cc2)c1", "hERG current change (%, negative = inhibition) at 10uM": 5.52},
      {"smiles": "Cc1nc(Nc2ccc3c(c2)OCCO3)c2c(C)c(C)sc2n1", "hERG current change (%, negative = inhibition) at 10uM": -18.5},
      {"smiles": "Nc1ccc(C(=O)N/N=C/c2c[nH]c3ccccc23)cc1", "hERG current change (%, negative = inhibition) at 10uM": 13.9},
      {"smiles": "Cc1cc(-c2ccco2)n(CC(=O)O)n1", "hERG current change (%, negative = inhibition) at 10uM": -8.68},
      {"smiles": "Cc1ccc(C(=O)N2N=C(CC(C)C)CC2(O)C(F)(F)F)o1", "note": "(stereo not drawn)", "hERG current change (%, negative = inhibition) at 10uM": 0.179},
      {"smiles": "Cc1nc([N+](=O)[O-])c(Br)n1CC(=O)c1ccc(Br)cc1", "hERG current change (%, negative = inhibition) at 10uM": -20.1},
      {"smiles": "Cc1nn2cc(-c3ncc(C(F)(F)F)cc3Cl)cnc2c1Br", "hERG current change (%, negative = inhibition) at 10uM": 14.8},
      {"smiles": "Fc1ccccc1/C=C1\\CCCC2=C1Nc1nnnn1C2c1ccccc1F", "note": "(stereo not drawn)", "hERG current change (%, negative = inhibition) at 10uM": -9.01},
      {"smiles": "CC(=O)Nc1ccc(S(=O)(=O)N2CCN(c3cccc(C)c3C)CC2)cc1", "hERG current change (%, negative = inhibition) at 10uM": 11.6},
      {"smiles": "CCOC(=O)C1(Cc2cccc(Cl)c2)CCCN(C(=O)c2cc(CC)on2)C1", "note": "(stereo not drawn)", "hERG current change (%, negative = inhibition) at 10uM": 7.97},
      {"smiles": "COc1cccc(NC(=O)c2cc(-c3ccc(C)o3)nc3ccccc23)c1", "hERG current change (%, negative = inhibition) at 10uM": 11.6},
      {"smiles": "COCCNC(=O)c1ccccc1NC(=O)CN(c1ccc2c(c1)OCO2)S(C)(=O)=O", "hERG current change (%, negative = inhibition) at 10uM": -7.28},
      {"smiles": "CCOC(=O)c1ccccc1NC(=O)c1c(N)n(C)c(=O)[nH]c1=O", "hERG current change (%, negative = inhibition) at 10uM": 0.691},
      {"smiles": "O=C(Nc1cc(Cl)cc(Cl)c1)c1cnn2cccnc12", "hERG current change (%, negative = inhibition) at 10uM": 9.31},
      {"smiles": "COc1ccc(CC(=O)NCc2nnc(SCC(=O)c3ccc(OC)cc3)n2C)cc1", "hERG current change (%, negative = inhibition) at 10uM": -3.61},
      {"smiles": "Cn1c(CCNC(=O)c2ccccc2)nc2cc(NC(=O)C3CCCCC3)ccc21", "hERG current change (%, negative = inhibition) at 10uM": 11.1},
      {"smiles": "COc1ccc(NC(=O)C(CCS(C)(=O)=O)N2C(=O)c3ccccc3C2=O)cc1", "note": "(stereo not drawn)", "hERG current change (%, negative = inhibition) at 10uM": -18.1},
      {"smiles": "CC(=O)Nc1cccc(-c2nnc(-c3ccccc3)o2)c1", "hERG current change (%, negative = inhibition) at 10uM": 1.26},
      {"smiles": "COc1cccc(NC(=O)C2CCC(CNC(=O)[C@@H]3Cc4ccccc4CN3)CC2)c1", "note": "(stereo partly drawn)", "hERG current change (%, negative = inhibition) at 10uM": -3.01},
      {"smiles": "COc1cccc(CCN2CCC(CNS(=O)(=O)c3cc(-c4cc(C)no4)ccc3OC)CC2)c1", "hERG current change (%, negative = inhibition) at 10uM": -74.9},
      {"smiles": "Cc1nn(Cc2ccccc2Cl)c(C)c1C(=O)NCCN1C(=O)S/C(=C\\c2ccccc2)C1=O", "hERG current change (%, negative = inhibition) at 10uM": 3.28},
      {"smiles": "Cc1ccc(C(O)(CNCc2ccccc2)c2ccccc2)cc1", "note": "(stereo not drawn)", "hERG current change (%, negative = inhibition) at 10uM": -33.9},
      {"smiles": "CCN(CC)S(=O)(=O)c1ccc(N2CCOCC2)c(NC(=O)Cc2ccc(Cl)cc2)c1", "hERG current change (%, negative = inhibition) at 10uM": -26.9},
      {"smiles": "Cc1ccc(-n2ncc3c(NNC(=O)Cc4ccccc4)ncnc32)cc1", "hERG current change (%, negative = inhibition) at 10uM": 10.1},
      {"smiles": "CCC(C)NS(=O)(=O)c1ccc(F)c(C(=O)Nc2c(F)cc(F)cc2Br)c1", "note": "(stereo not drawn)", "hERG current change (%, negative = inhibition) at 10uM": -60.8},
      {"smiles": "CC(C)CN(C(=O)CSc1nc2ccccc2c(=O)n1C)C1CCS(=O)(=O)C1", "note": "(stereo not drawn)", "hERG current change (%, negative = inhibition) at 10uM": -46.6},
      {"smiles": "CCOc1ccc(NC2=C(Cl)C(=O)N(C3CCCCC3)C2=O)cc1", "hERG current change (%, negative = inhibition) at 10uM": 3.08},
      {"smiles": "COc1ccc(OC)c(CN2CCN(C(=O)c3cc(S(=O)(=O)Nc4ccccc4OC)ccc3C)CC2)c1", "hERG current change (%, negative = inhibition) at 10uM": -36.8},
      {"smiles": "CC(=O)Nc1ccc(SCc2csc(C)n2)cc1", "hERG current change (%, negative = inhibition) at 10uM": 12.6},
      {"smiles": "CSc1ccccc1OCc1cc(C(=O)NCc2cccc(C)n2)no1", "hERG current change (%, negative = inhibition) at 10uM": 14.5},
      {"smiles": "COc1ccc(N(Cc2ccccc2)S(=O)(=O)c2cccc(C(=O)O)c2)cc1", "hERG current change (%, negative = inhibition) at 10uM": 13.4},
      {"smiles": "N=c1oc2ccc3ccccc3c2cc1C(N)=S", "hERG current change (%, negative = inhibition) at 10uM": 10.3},
      {"smiles": "CCOc1ccccc1NC(=O)c1ccc(S(=O)(=O)N(C)C)cc1", "hERG current change (%, negative = inhibition) at 10uM": -19.7},
      {"smiles": "COc1ccc(Nc2nc(N3CCN(S(=O)(=O)N(C)C)CC3)nc3ccccc23)cc1", "hERG current change (%, negative = inhibition) at 10uM": -5.03},
      {"smiles": "O=C(Nc1ccccc1)c1ccc(Cn2cc(C(F)(F)F)ccc2=O)cc1", "hERG current change (%, negative = inhibition) at 10uM": -14},
      {"smiles": "O=C(NC1CCN(S(=O)(=O)c2ccccc2F)CC1)c1ccco1", "hERG current change (%, negative = inhibition) at 10uM": -4.61},
      {"smiles": "CCCn1c(N)c(Sc2ccc([N+](=O)[O-])cc2)c(=O)n(CCC)c1=O", "hERG current change (%, negative = inhibition) at 10uM": -83.8},
      {"smiles": "O=C(NC1CCN(C(=S)NCCc2ccccc2)CC1)C1CC1", "hERG current change (%, negative = inhibition) at 10uM": -18.4},
      {"smiles": "CC(=O)Nc1cccc(NC(=O)C2C3C=CC(C3)C2C(=O)O)c1", "note": "(stereo not drawn)", "hERG current change (%, negative = inhibition) at 10uM": 18.7},
      {"smiles": "CN(C)c1ccc(/C=N/NC(=O)Cn2nnc3ccccc32)cc1", "hERG current change (%, negative = inhibition) at 10uM": 1.44},
      {"smiles": "CC1(C)NC(=O)N(CC(O)COc2ccc(N3C(=O)c4ccccc4C3=O)cc2)C1=O", "note": "(stereo not drawn)", "hERG current change (%, negative = inhibition) at 10uM": 6.56},
      {"smiles": "COc1cc(-c2cc(C(=O)Nc3ccc(N4CCOCC4)cc3)c3ccccc3n2)cc(OC)c1OC", "hERG current change (%, negative = inhibition) at 10uM": 6.95},
      {"smiles": "CC(C)NC(=O)c1onc(CSc2ccc(Cl)cc2)c1C(=O)NC(C)C", "hERG current change (%, negative = inhibition) at 10uM": -23.1},
      {"smiles": "CC(=O)c1ccc(N2CCN(C(=O)c3cn(Cc4ccccc4)nc3-c3cccnc3)CC2)c(F)c1", "hERG current change (%, negative = inhibition) at 10uM": -50.2},
      {"smiles": "COc1ccc(C(=O)CSc2cc(C)nc(SCC(=O)c3ccc(C)cc3)n2)cc1", "hERG current change (%, negative = inhibition) at 10uM": 8.17},
      {"smiles": "CCOC(=O)N1CCN(C(=O)c2ccccc2-c2ccccc2)CC1", "hERG current change (%, negative = inhibition) at 10uM": 14.5},
      {"smiles": "Cc1cccc(NC(=O)C2C(C(=O)O)C3C=CC2C32CC2)c1C", "note": "(stereo not drawn)", "hERG current change (%, negative = inhibition) at 10uM": -4.79},
      {"smiles": "O=C(Nc1nnc(SCCC2OCCO2)s1)C1CC(=O)N(c2ccccc2)C1", "note": "(stereo not drawn)", "hERG current change (%, negative = inhibition) at 10uM": -26.5}
    ]}
  ]
}
